This is one part of the list. Interaction screen of human proteins with wild-type SARS-CoV-2 proteins by split-DHFR complementation in yeast, 1 µg/mL methotrexate. Value = fitness of the pair (three or more lineages) minus that of the viral protein without a human partner, on a scale set by negative (0) and fused positive (1) controls, mean of up to three cultures; higher = more likely to interact. Active = false discovery rate below 0.05 (one-sided t-test) in at least one culture. Nearly all pairs are not hits, and differences among them are mostly noise (correlation between cultures about 0.3); most hits were seen in one culture only. Human sequences are the Swiss-Prot entries looked up by gene name; the clone may be another isoform. NSP2 values were corrected by the authors for a growth advantage. Listed are human proteins with a hit and a random twelfth of the others.
B1: TAS2R8, Q9NYW2 (protein)
chain: MFSPADNIFIILITGEFILGILGNGYIALVNWIDWIKKKKISTVDYILTNLVIARICLISVMVVNGIVIVLNPDVYTKNKQQIVIFTFWTFANYLNMWITTCLNVFYFLKIASSSHPLFLWLKWKIDMVVHWILLGCFAISLLVSLIAAIVLSCDYRFHAIAKHKRNITEMFHVSKIPYFEPLTLFNLFAIVPFIVSLISFFLLVRSLWRHTKQIKLYATGSRDPSTEVHVRAIKTMTSFIFFFFLYYISSILMTFSYLMTKYKLAVEFGEIAAILYPLGHSLILIVLNNKLRQTFVRMLTCRKIACMI
B2: TMEM129, A0AVI4 (protein)
chain: MDSPEVTFTLAYLVFAVCFVFTPNEFHAAGLTVQNLLSGWLGSEDAAFVPFHLRRTAATLLCHSLLPLGYYVGMCLAASEKRLHALSQAPEAWRLFLLLAVTLPSIACILIYYWSRDRWACHPLARTLALYALPQSGWQAVASSVNTEFRRIDKFATGAPGARVIVTDTWVMKVTTYRVHVAQQQDVHLTVTESRQHELSPDSNLPVQLLTIRVASTNPAVQAFDIWLNSTEYGELCEKLRAPIRRAAHVVIHQSLGDLFLETFASLVEVNPAYSVPSSQELEACIGCMQTRASVKLVKTCQEAATGECQQCYCRPMWCLTCMGKWFASRQDPLRPDTWLASRVPCPTCRARFCILDVCTVR
B3: SNAPC2, Q13487 (protein)
chain: MKPPPRRRAAPARYLGEVTGPATWSAREKRQLVRLLQARQGQPEPDATELARELRGRSEAEIRVFLQQLKGRVAREAIQKVHPGGLQGPRRREAQPPAPIEVWTDLAEKITGPLEEALAVAFSQVLTIAATEPVTLLHSKPPKPTQARGKPLLLSAPGGQEDPAPEIPSSAPAAPSSAPRTPDPAPEKPSESSAGPSTEEDFAVDFEKIYKYLSSVSRSGRSPELSAAESAVVLDLLMSLPEELPLLPCTALVEHMTETYLRLTAPQPIPAGGSLGPAAEGDGAGSKAPEETPPATEKAEHSELKSPWQAAGICPLNPFLVPLELLGRAATPAR
B4: SCGB1D1, O95968 (protein)
chain: MRLSVCLLLLTLALCCYRANAVVCQALGSEITGFLLAGKPVFKFQLAKFKAPLEAVAAKMEVKKCVDTMAYEKRVLITKTLGKIAEKCDR

biological target: SARS-CoV-2 E; assay: yeast fitness gain over the viral ORF with no human partner (scaled fitness); higher = more likely to interact
Protocol: (§1)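 Split mouse DHFR complementation in pooled diploid yeast: human ORFeome clones carry one fragment and viral ORFs the other; barcoded lineages compete in 1 µg/mL methotrexate and fitness is read by barcode sequencing in up to three cultures.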

Binder	yeast fitness gain
B1	inactive: -0.47
B2	inactive: -0.0779
B3	inactive: -0.0943
B4	inactive: -0.122

biological target: SARS-CoV-2 M; assay: as above
Protocol: as §1

Binder	yeast fitness gain
B1	inactive: 0.0211
B2	inactive: -0.131
B3	inactive: -0.0491
B4	inactive: 0.0543

biological target: SARS-CoV-2 N; assay: as above
Protocol: as §1

Binder	yeast fitness gain
B1	inactive: -0.0764
B2	inactive: -0.059
B3	inactive: 0.0114
B4	inactive: 0.0934

biological target: SARS-CoV-2 NSP1; assay: as above
Protocol: as §1

Binder	yeast fitness gain
B1	inactive: 0.0923
B2	inactive: 0.0231
B3	inactive: 0.0473
B4	inactive: 0.0477

biological target: SARS-CoV-2 NSP10; assay: as above
Protocol: as §1

Binder	yeast fitness gain
B1	inactive: 0.0119
B2	inactive: 0.117
B3	inactive: 0.00636
B4	inactive: -0.102

biological target: SARS-CoV-2 NSP12; assay: as above
Protocol: as §1

Binder	yeast fitness gain
B1	inactive: -0.0308
B2	inactive: 0.109
B3	inactive: 0.00759
B4	inactive: 0.0407

biological target: SARS-CoV-2 NSP13; assay: as above
Protocol: as §1

Binder	yeast fitness gain
B1	inactive: 0.0319
B2	inactive: 0.112
B3	inactive: 0.04
B4	inactive: 0.0137

biological target: SARS-CoV-2 NSP14; assay: as above
Protocol: as §1

Binder	yeast fitness gain
B1	inactive: 0.0954
B3	inactive: -0.0048
B4	inactive: 0.0375

biological target: SARS-CoV-2 NSP15; assay: as above
Protocol: as §1

Binder	yeast fitness gain
B1	inactive: -0.0625
B3	inactive: -0.00891
B4	inactive: -0.0725

biological target: SARS-CoV-2 NSP16; assay: as above
Protocol: as §1

Binder	yeast fitness gain
B1	inactive: -0.117
B3	inactive: -0.0493
B4	inactive: 0.0505

biological target: SARS-CoV-2 NSP2; assay: as above
Protocol: as §1

Binder	yeast fitness gain
B1	inactive: -0.14
B2	inactive: -0.0732
B3	inactive: -0.141
B4	inactive: -0.125

biological target: SARS-CoV-2 NSP4; assay: as above
Protocol: as §1

Binder	yeast fitness gain
B1	inactive: 0.0958
B2	inactive: -0.00658
B3	inactive: 0.00257
B4	inactive: -0.0552

biological target: SARS-CoV-2 NSP5; assay: as above
Protocol: as §1

Binder	yeast fitness gain
B1	inactive: 0.0108
B2	inactive: -0.188
B3	inactive: 0.0434
B4	inactive: 0.0177

biological target: SARS-CoV-2 NSP6; assay: as above
Protocol: as §1

Binder	yeast fitness gain
B1	inactive: -0.0746
B3	inactive: 0.00984
B4	inactive: 0.0496

biological target: SARS-CoV-2 NSP7; assay: as above
Protocol: as §1

Binder	yeast fitness gain
B1	inactive: -0.00947
B2	inactive: 0.0133
B3	inactive: 0.0497
B4	inactive: 0.0328

biological target: SARS-CoV-2 NSP8; assay: as above
Protocol: as §1

Binder	yeast fitness gain
B1	inactive: 0.0276
B2	inactive: 0.116
B3	inactive: 0.0234
B4	inactive: 0.0884

biological target: SARS-CoV-2 NSP9; assay: as above
Protocol: as §1

Binder	yeast fitness gain
B1	inactive: 0.00185
B3	inactive: 0.0147
B4	inactive: 0.0522

biological target: SARS-CoV-2 ORF10; assay: as above
Protocol: as §1

Binder	yeast fitness gain
B1	inactive: 0.0472
B2	inactive: 0.041
B3	inactive: -0.00502
B4	inactive: 0.0758

biological target: SARS-CoV-2 ORF3A; assay: as above
Protocol: as §1

Binder	yeast fitness gain
B1	inactive: 0.0587
B2	inactive: 0.0633
B3	inactive: -0.0627
B4	inactive: 0.0469

biological target: SARS-CoV-2 ORF3B; assay: as above
Protocol: as §1

Binder	yeast fitness gain
B1	inactive: 0.0119
B2	inactive: -0.076
B3	inactive: 0.00994
B4	inactive: 0.031

biological target: SARS-CoV-2 ORF6; assay: as above
Protocol: as §1

Binder	yeast fitness gain
B1	inactive: 0.0277
B2	inactive: 0.0483
B3	inactive: 0.0156
B4	inactive: 0.054

biological target: SARS-CoV-2 ORF7A; assay: as above
Protocol: as §1

Binder	yeast fitness gain
B1	inactive: 0.0693
B2	inactive: -0.00201
B3	inactive: 0.0435
B4	inactive: -0.0989

biological target: SARS-CoV-2 ORF7B; assay: as above
Protocol: as §1

Binder	yeast fitness gain
B1	inactive: -0.0423
B2	inactive: 0.00766
B3	inactive: -0.0596
B4	inactive: -0.0219

biological target: SARS-CoV-2 ORF8; assay: as above
Protocol: as §1

Binder	yeast fitness gain
B1	inactive: 0.06
B2	inactive: -0.0174
B3	inactive: 0.0159
B4	inactive: 7.3e-06

biological target: SARS-CoV-2 ORF9B; assay: as above
Protocol: as §1

Binder	yeast fitness gain
B1	inactive: 0.0231
B2	inactive: -0.0523
B3	inactive: -0.0213
B4	inactive: 0.0434

biological target: SARS-CoV-2 ORF9Bwu (the 73-codon ORF); assay: as above
Protocol: as §1

Binder	yeast fitness gain
B1	inactive: 0.122
B2	inactive: 0.00999
B3	inactive: -0.0138
B4	inactive: 0.016

biological target: SARS-CoV-2 S; assay: as above
Protocol: as §1

Binder	yeast fitness gain
B1	inactive: 0.0386
B2	inactive: 0.0291
B3	inactive: 0.0717
B4	inactive: 0.0208

From the supplement of paper PMC11741623
